Measured values from the supplement of paper PMC4604168 (melanoma cell lines).
The other results are listed elsewhere or left out. Single values are uncertain, as repeats are few or missing.

What was measured:
Experiment in all cases: cell count relative to DMSO control; melanoma cells; higher = more viable cells
Conditions in all cases: library dose: standard library concentration; 72 h
501Mel = tested on: 501Mel
A101D = tested on: A101D
A2058 = tested on: A2058
A375 = tested on: A375
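Also: cells treated in 1,536-well plates, then fixed and DAPI-stained, with nuclei counted from automated high-throughput microscope images.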

Which cell count (501Mel) does the source give for Cn1cnc2c(F)c(Nc3ccc(Br)cc3Cl)c(C(=O)NOCCO)cc21 [selumetinib] + CCc1ccc(CCOc2ccc(CC3SC(=O)NC3=O)cc2)nc1 [pioglitazone] (first compound 0.075 µM, partner dose 10 µM) here?
Its cell count is 44.2%.

What about the cell count (A101D) of the same compound?
Its cell count is 73.5%.

And the cell count (A2058)?
Its cell count is 103%.

What about the cell count (A375) of the same compound?
Its cell count is 83.9%.

For CCN(CC)CCNC(=O)c1c(C)[nH]c(/C=C2\C(=O)Nc3ccc(F)cc32)c1C [sunitinib] + COc1cc(N2CCC(N3CCN(C)CC3)CC2)ccc1Nc1ncc(Cl)c(Nc2ccccc2S(=O)(=O)C(C)C)n1 [NVP-TAE684] (first compound 2 µM, partner dose 0.4 µM), which cell count (501Mel) is on record?
The cell count was 45.4%.

What about the cell count (A101D) of the same compound?
The cell count was 64.2%.

And the cell count (A2058)?
The cell count was 50.4%.

And the cell count (A375)?
The cell count was 95.8%.

Which results are given for CCN(CC)CCNC(=O)c1c(C)[nH]c(/C=C2\C(=O)Nc3ccc(F)cc32)c1C [sunitinib] + COc1ccc(COc2ccc(Cc3cnc(N)nc3N)cc2OC)cc1 [GW2580] (first compound 2 µM, partner dose 5 µM)?
cell count (501Mel): 20.4%; cell count (A101D): 64%; cell count (A2058): 60.6%; cell count (A375): 102%

Which cell count (501Mel) does the source give for COc1cc([C@@H]2c3cc4c(cc3[C@@H](O[C@@H]3O[C@@H]5CO[C@@H](C)O[C@H]5[C@H](O)[C@H]3O)[C@H]3COC(=O)[C@H]23)OCO4)cc(OC)c1O [etoposide] + O=C1NC(=O)/C(=C/c2ccc(-c3ccc(F)cc3O)o2)S1 [AS252424] (first compound 0.1 µM, partner dose 5 µM) here?
Its cell count is 75.3%.

And the cell count (A101D)?
The cell count was 117%.

What about the cell count (A2058) of the same compound?
Its cell count is 89%.

What about the cell count (A375) of the same compound?
Its cell count is 86.9%.

With COc1cc([C@@H]2c3cc4c(cc3[C@@H](O[C@@H]3O[C@@H]5CO[C@@H](C)O[C@H]5[C@H](O)[C@H]3O)[C@H]3COC(=O)[C@H]23)OCO4)cc(OC)c1O [etoposide] + CC(C)CCN1c2nc(Nc3cc(F)c(O)c(F)c3)ncc2N(C)C(=O)C1C [BID1870] (first compound 0.1 µM, partner dose 1 µM) as the compound, how does the cell count (501Mel) read?
The cell count was 79.3%.

And the cell count (A101D)?
Its cell count is 67.7%.

What about the cell count (A2058) of the same compound?
The cell count was 70.3%.

What about the cell count (A375) of the same compound?
Its cell count is 80.2%.

Which cell count (501Mel) does the source give for CCN(CC)CCNC(=O)c1c(C)[nH]c(/C=C2\C(=O)Nc3ccc(F)cc32)c1C [sunitinib] + O=c1cc(-c2cccc3c2Sc2ccccc2S3)oc(N2CCOCC2)c1 [KU55933] (first compound 2 µM, partner dose 5 µM) here?
The cell count was 39.5%.

And the cell count (A101D)?
Its cell count is 62.5%.

What about the cell count (A2058) of the same compound?
The cell count was 48.7%.

What about the cell count (A375) of the same compound?
Its cell count is 89.2%.

Which cell count (501Mel) does the source give for Cn1cnc2c(F)c(Nc3ccc(Br)cc3Cl)c(C(=O)NOCCO)cc21 [selumetinib] + O=C1NC(=O)/C(=C/c2ccc(-c3ccc(F)cc3O)o2)S1 [AS252424] (first compound 0.075 µM, partner dose 5 µM) here?
The cell count was 36.6%.

What about the cell count (A101D) of the same compound?
The cell count was 70.2%.

What about the cell count (A2058) of the same compound?
Its cell count is 102%.

And the cell count (A375)?
Its cell count is 63%.

Which results are given for C[C@]1(O)C[C@@H](c2nc(-c3ccc4ccc(-c5ccccc5)nc4c3)c3c(N)nccn32)C1 + O=C(Nc1ccccc1)c1cc([N+](=O)[O-])ccc1Cl [GW9662] (first compound 2 µM, partner dose 10 µM)?
cell count (501Mel): 59.3%; cell count (A101D): 96.2%; cell count (A2058): 107%; cell count (A375): 105%

Which cell count (501Mel) does the source give for CCN(CC)CCNC(=O)c1c(C)[nH]c(/C=C2\C(=O)Nc3ccc(F)cc32)c1C [sunitinib] + Cn1cc(/C=C2\C(=O)Nc3cccnc32)c2ccccc21 [GW441756] (first compound 2 µM, partner dose 2 µM) here?
Its cell count is 28.4%.

And the cell count (A101D)?
The cell count was 63.7%.

And the cell count (A2058)?
The cell count was 65%.

What about the cell count (A375) of the same compound?
The cell count was 92.1%.

For COc1cc([C@@H]2c3cc4c(cc3[C@@H](O[C@@H]3O[C@@H]5CO[C@@H](C)O[C@H]5[C@H](O)[C@H]3O)[C@H]3COC(=O)[C@H]23)OCO4)cc(OC)c1O [etoposide] + O=S(=O)(c1ccccc1)N(CC(F)(F)F)c1ccc(C(O)(C(F)(F)F)C(F)(F)F)cc1 [T0901317] (first compound 0.1 µM, partner dose 7 µM), which cell count (501Mel) is on record?
The cell count was 83.2%.

What about the cell count (A101D) of the same compound?
Its cell count is 99.4%.

What about the cell count (A2058) of the same compound?
Its cell count is 67.6%.

What about the cell count (A375) of the same compound?
The cell count was 67.9%.

With COc1cc([C@@H]2c3cc4c(cc3[C@@H](O[C@@H]3O[C@@H]5CO[C@@H](C)O[C@H]5[C@H](O)[C@H]3O)[C@H]3COC(=O)[C@H]23)OCO4)cc(OC)c1O [etoposide] + CCc1ccc(CCOc2ccc(CC3SC(=O)NC3=O)cc2)nc1 [pioglitazone] (first compound 0.1 µM, partner dose 10 µM) as the compound, how does the cell count (501Mel) read?
The cell count was 83.9%.

What about the cell count (A101D) of the same compound?
The cell count was 79.2%.

And the cell count (A2058)?
Its cell count is 71.1%.

What about the cell count (A375) of the same compound?
The cell count was 67.3%.

What does the source list for CCN(CC)CCNC(=O)c1c(C)[nH]c(/C=C2\C(=O)Nc3ccc(F)cc32)c1C [sunitinib] + Cc1cc([N+](=O)[O-])ccc1NS(=O)(=O)c1cc(Cl)ccc1Cl [FH535] (first compound 2 µM, partner dose 5 µM)?
cell count (501Mel): 29.1%; cell count (A101D): 66%; cell count (A2058): 60.4%; cell count (A375): 78.2%

What does the source list for COc1cc([C@@H]2c3cc4c(cc3[C@@H](O[C@@H]3O[C@@H]5CO[C@@H](C)O[C@H]5[C@H](O)[C@H]3O)[C@H]3COC(=O)[C@H]23)OCO4)cc(OC)c1O [etoposide] + COc1ccc2c(c1)CCC1C2CCC2(C)C(NCCCCCCN3C(=O)C=CC3=O)CCC12 [U73122] (first compound 0.1 µM, partner dose 2 µM)?
cell count (501Mel): 81.1%; cell count (A101D): 72%; cell count (A2058): 64.8%; cell count (A375): 81.7%

For Cn1cnc2c(F)c(Nc3ccc(Br)cc3Cl)c(C(=O)NOCCO)cc21 [selumetinib] + O=S(=O)(c1ccccc1)N(CC(F)(F)F)c1ccc(C(O)(C(F)(F)F)C(F)(F)F)cc1 [T0901317] (first compound 0.075 µM, partner dose 7 µM), which cell count (501Mel) is on record?
Its cell count is 41.9%.

And the cell count (A101D)?
Its cell count is 65.3%.

And the cell count (A2058)?
Its cell count is 94.1%.

What about the cell count (A375) of the same compound?
Its cell count is 97.3%.

C[C@]1(O)C[C@@H](c2nc(-c3ccc4ccc(-c5ccccc5)nc4c3)c3c(N)nccn32)C1 + O=C1NC(=O)/C(=C/c2ccc(-c3ccc(F)cc3O)o2)S1 [AS252424] (first compound 2 µM, partner dose 5 µM) was tested. Which cell count (501Mel) did it give?
Its cell count is 66.7%.

What about the cell count (A101D) of the same compound?
Its cell count is 107%.

And the cell count (A2058)?
The cell count was 92.1%.

What about the cell count (A375) of the same compound?
The cell count was 91.4%.

With COc1cc([C@@H]2c3cc4c(cc3[C@@H](O[C@@H]3O[C@@H]5CO[C@@H](C)O[C@H]5[C@H](O)[C@H]3O)[C@H]3COC(=O)[C@H]23)OCO4)cc(OC)c1O [etoposide] + O=C(Nc1ccccc1)c1cc([N+](=O)[O-])ccc1Cl [GW9662] (first compound 0.1 µM, partner dose 10 µM) as the compound, how does the cell count (501Mel) read?
The cell count was 82.9%.

What about the cell count (A101D) of the same compound?
Its cell count is 79.5%.

What about the cell count (A2058) of the same compound?
The cell count was 71.4%.

And the cell count (A375)?
The cell count was 86.3%.

For Cn1cnc2c(F)c(Nc3ccc(Br)cc3Cl)c(C(=O)NOCCO)cc21 [selumetinib] + COc1ccc(-c2ccc3c(N4CCOCC4)nc(N4C[C@@H](C)O[C@@H](C)C4)nc3n2)cc1CO [KU0063794] (first compound 0.075 µM, partner dose 0.1 µM), which cell count (501Mel) is on record?
Its cell count is 34.2%.

And the cell count (A101D)?
Its cell count is 66.2%.

What about the cell count (A2058) of the same compound?
Its cell count is 127%.

And the cell count (A375)?
Its cell count is 83.9%.

How did the cell count (501Mel) turn out when COc1cc([C@@H]2c3cc4c(cc3[C@@H](O[C@@H]3O[C@@H]5CO[C@@H](C)O[C@H]5[C@H](O)[C@H]3O)[C@H]3COC(=O)[C@H]23)OCO4)cc(OC)c1O [etoposide] + CCCCCCCCCCCC1=C(O)C(=O)C=C(O)C1=O [Embelin] (first compound 0.1 µM, partner dose 6 µM) was run?
Its cell count is 81.2%.

What about the cell count (A101D) of the same compound?
The cell count was 74.1%.

And the cell count (A2058)?
The cell count was 78.2%.

What about the cell count (A375) of the same compound?
Its cell count is 75.8%.

What does the source list for Cn1cnc2c(F)c(Nc3ccc(Br)cc3Cl)c(C(=O)NOCCO)cc21 [selumetinib] + O=C(O)[C@@H]1[O][Sb](=[O])([O][Sb]2(=[O])[O][C@H]([C@H](O)CO)[C@H](O)[C@H](C(=O)O)[O]2)[O][C@H]([C@H](O)CO)[C@@H]1O [stibogluconate] (first compound 0.075 µM, partner dose 10 µM)?
cell count (A101D): 65.6%; cell count (A2058): 102%; cell count (A375): 88.1%

What does the source list for COc1cc([C@@H]2c3cc4c(cc3[C@@H](O[C@@H]3O[C@@H]5CO[C@@H](C)O[C@H]5[C@H](O)[C@H]3O)[C@H]3COC(=O)[C@H]23)OCO4)cc(OC)c1O [etoposide] + Cc1ccc(NC(=O)c2cccc(N(C)C)c2)cc1NC(=O)c1ccc(O)cc1 [ZM336372] (first compound 0.1 µM, partner dose 10 µM)?
cell count (A101D): 92.8%; cell count (A2058): 96.4%; cell count (A375): 72.7%

Which cell count (A101D) does the source give for CCN(CC)CCNC(=O)c1c(C)[nH]c(/C=C2\C(=O)Nc3ccc(F)cc32)c1C [sunitinib] + CNC(=O)c1cc(Oc2ccc(NC(=O)Nc3ccc(Cl)c(C(F)(F)F)c3)cc2)ccn1 [sorafenib] (first compound 2 µM, partner dose 2 µM) here?
Its cell count is 65.8%.

And the cell count (A2058)?
Its cell count is 76.9%.

What about the cell count (A375) of the same compound?
The cell count was 124%.

With C[C@]1(O)C[C@@H](c2nc(-c3ccc4ccc(-c5ccccc5)nc4c3)c3c(N)nccn32)C1 + Nc1ccn([C@@H]2O[C@H](CO)[C@@H](O)C2(F)F)c(=O)n1 [gemcitabine] (first compound 2 µM, partner dose 0.002 µM) as the compound, how does the cell count (A101D) read?
Its cell count is 71.4%.

And the cell count (A2058)?
Its cell count is 69.7%.

And the cell count (A375)?
The cell count was 62.6%.
